Assay results published in publication PMC12592546.
Results are given in words; binding and its absence hold for the method and conditions named. Binding seen in cells or lysates may run through a third protein. Some results given as binding are weak or reduced against the parent protein; the word gives no strength. For part of these data: Sequences can lack the tags named with a protein.

Amino acid sequences for entries named in this document (tags omitted).
UniProt Q92830: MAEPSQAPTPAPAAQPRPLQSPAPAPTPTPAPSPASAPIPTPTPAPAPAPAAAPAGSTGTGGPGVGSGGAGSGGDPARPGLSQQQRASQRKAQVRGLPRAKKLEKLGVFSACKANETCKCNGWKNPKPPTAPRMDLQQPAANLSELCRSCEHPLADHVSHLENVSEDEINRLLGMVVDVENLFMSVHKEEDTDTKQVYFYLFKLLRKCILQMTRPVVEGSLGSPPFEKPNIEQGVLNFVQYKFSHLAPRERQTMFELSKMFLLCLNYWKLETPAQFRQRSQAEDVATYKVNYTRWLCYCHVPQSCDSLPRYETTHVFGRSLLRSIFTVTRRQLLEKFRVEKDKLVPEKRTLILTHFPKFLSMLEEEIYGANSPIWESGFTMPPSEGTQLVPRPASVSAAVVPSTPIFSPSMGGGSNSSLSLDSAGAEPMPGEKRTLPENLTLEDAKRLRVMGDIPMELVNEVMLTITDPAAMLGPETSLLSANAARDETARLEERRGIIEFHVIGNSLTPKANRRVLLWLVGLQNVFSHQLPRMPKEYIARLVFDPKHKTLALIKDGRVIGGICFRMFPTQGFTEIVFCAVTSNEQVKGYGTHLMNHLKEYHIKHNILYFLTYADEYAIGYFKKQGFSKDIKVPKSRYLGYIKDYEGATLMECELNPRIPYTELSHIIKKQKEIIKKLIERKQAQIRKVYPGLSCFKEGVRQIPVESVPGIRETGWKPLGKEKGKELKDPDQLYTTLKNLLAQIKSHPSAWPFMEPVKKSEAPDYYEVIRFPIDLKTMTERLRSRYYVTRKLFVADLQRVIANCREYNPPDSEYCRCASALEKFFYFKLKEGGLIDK
UniProt Q06609: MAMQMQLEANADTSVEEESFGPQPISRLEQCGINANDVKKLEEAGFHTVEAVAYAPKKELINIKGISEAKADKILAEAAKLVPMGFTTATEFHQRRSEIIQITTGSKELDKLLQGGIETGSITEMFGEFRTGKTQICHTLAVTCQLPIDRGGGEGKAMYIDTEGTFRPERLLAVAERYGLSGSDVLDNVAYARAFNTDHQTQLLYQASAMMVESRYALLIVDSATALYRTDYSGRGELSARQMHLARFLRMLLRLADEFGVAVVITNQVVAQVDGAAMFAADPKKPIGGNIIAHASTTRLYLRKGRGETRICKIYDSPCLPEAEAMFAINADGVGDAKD
UniProt P08621: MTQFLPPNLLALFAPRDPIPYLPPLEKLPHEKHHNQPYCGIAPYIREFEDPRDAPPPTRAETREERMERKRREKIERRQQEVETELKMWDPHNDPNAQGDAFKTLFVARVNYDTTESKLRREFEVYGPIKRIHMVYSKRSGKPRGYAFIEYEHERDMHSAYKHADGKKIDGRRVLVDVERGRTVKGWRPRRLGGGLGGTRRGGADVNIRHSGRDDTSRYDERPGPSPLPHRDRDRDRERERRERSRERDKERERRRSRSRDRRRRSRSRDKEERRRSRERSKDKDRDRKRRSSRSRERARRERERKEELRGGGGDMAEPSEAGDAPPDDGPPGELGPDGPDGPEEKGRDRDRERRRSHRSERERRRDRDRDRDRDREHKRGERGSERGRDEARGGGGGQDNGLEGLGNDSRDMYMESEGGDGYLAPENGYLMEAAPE

Experiments:
[1] = target: T1, serine/arginine-rich splicing factor 11 (SRSF11) (human (endogenous in Huh7 and LM3)) (UniProt Q05519); assay: proximity ligation; in situ Proximity Ligation Assay (PLA), Supplementary Fig. 1g; cells not named in the text shown
T1 sequence: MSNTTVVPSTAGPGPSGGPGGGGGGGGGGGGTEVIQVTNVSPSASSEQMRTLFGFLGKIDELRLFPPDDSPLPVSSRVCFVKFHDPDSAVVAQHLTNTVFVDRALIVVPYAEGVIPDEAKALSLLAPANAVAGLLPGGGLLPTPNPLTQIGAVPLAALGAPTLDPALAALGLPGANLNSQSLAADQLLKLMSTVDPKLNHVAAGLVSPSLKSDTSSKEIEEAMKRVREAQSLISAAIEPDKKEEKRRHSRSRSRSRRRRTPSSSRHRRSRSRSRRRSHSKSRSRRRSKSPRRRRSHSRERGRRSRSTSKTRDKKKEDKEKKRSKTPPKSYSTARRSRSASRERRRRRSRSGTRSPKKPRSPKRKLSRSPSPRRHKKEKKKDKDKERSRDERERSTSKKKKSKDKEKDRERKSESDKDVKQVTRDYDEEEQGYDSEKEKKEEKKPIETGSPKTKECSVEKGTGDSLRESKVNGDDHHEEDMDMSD

[2] = target: T1, serine/arginine-rich splicing factor 11 (SRSF11) (human (endogenous in Huh7 and LM3)); assay: co-IP; endogenous proteins in Huh7 and LM3 cells; IP with anti-SRSF11 and blot for KAT2A, or IP with anti-KAT2A and blot for SRSF11
HA-RAD52 (human) = target: T2, HA-RAD52 (human) (UniProt P43351); assay: co-IP; Huh7 and LM3 cells overexpressing HA-RAD52 or HA-RAD52^△Ex10; IP with anti-HA or anti-RAD51; HA-RAD52^△Ex10 also with or without Flag-SRSF11
T2 sequence: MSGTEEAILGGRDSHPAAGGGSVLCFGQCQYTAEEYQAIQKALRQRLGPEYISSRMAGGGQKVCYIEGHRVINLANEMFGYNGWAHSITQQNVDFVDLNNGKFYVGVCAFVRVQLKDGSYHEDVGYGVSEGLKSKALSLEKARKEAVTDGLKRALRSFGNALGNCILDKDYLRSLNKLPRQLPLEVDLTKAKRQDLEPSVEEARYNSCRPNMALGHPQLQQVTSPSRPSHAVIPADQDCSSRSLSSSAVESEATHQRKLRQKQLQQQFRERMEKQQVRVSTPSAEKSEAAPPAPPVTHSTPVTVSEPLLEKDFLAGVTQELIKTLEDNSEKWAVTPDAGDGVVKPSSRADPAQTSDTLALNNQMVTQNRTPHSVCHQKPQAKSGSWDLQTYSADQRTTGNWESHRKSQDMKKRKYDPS

HA-RAD52^△Ex10 (human) = target: T3, HA-RAD52^△Ex10 (human) (UniProt P43351); assay: as above
T3 sequence: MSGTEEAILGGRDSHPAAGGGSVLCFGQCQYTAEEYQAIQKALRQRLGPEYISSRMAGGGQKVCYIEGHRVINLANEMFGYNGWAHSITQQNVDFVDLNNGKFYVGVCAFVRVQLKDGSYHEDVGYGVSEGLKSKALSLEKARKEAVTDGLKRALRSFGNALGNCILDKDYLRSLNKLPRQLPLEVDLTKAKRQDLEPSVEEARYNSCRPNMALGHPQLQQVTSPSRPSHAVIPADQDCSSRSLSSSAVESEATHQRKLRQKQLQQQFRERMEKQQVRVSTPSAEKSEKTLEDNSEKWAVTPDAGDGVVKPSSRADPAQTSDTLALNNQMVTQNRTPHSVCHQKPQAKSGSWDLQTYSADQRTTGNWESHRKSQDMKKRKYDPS

[3] = target: T4, RAD52 (endogenous) (human (endogenous in Huh7)) (UniProt P43351); assay: co-IP; endogenous proteins; IP with anti-RAD52, blot for RAD51; also in Huh7 cells with siRAD52^Ex10, Flag-SRSF11, siSRSF11 or siKAT2A (binding told as more or less)
T4 sequence: T2 sequence

Flag-SRSF11 = target: T5, Flag-SRSF11 (UniProt Q05519); assay: co-IP; Huh7 cells transfected with Flag-SRSF11; IP with anti-Flag, blots for U2AF2, PRPF8 and SNRNP70; also with siSRSF11, siKAT2A or HA-KAT2A (binding told as more or less)
T5 sequence: T1 sequence

With “K(lysine) acetyltransferase 2A (KAT2A) (from UniProt Q92830 1-837) (enzyme)” the binding [1] was “binds” and the binding [2] was “binds”.
For “RAD51 (endogenous) (from UniProt Q06609 1-339)”, the binding (HA-RAD52 (human)) was “binds”, the binding (HA-RAD52^△Ex10 (human)) was “no binding” and the binding [3] was “binds”.
SNRNP70 (from UniProt P08621 1-437) was tested, and the binding (Flag-SRSF11) was “binds”.
